# Experimental data: the supplement of paper PMC10681739
# ± gives the standard deviation of the averaged measurements. In all, about 4,000 sequences were measured (“arbitrary fluorescence units”: median about 830, highest 2% from about 6,500 on). Most of the strongest results are missing from this list.
# Biological target: RUNX1 (UniProt Q01196)
# Experiment: RUNX1 binding intensity (PBM fluorescence), RUNX1 alone (arbitrary fluorescence units); higher = stronger binding
# Conditions: RUNX1 concentration 2 nM; ETS1 concentration 0 nM
# Experimental: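 gcPBM on 36-bp genomic-derived probes (partner site mutated) containing one RUNX1 site and no ETS1 site. Recombinant human RUNX1 (2 nM) was incubated alone or with ETS1 (25 nM) and detected by anti-RUNX1 antibody fluorescence. Values are medians over 4 replicate spots (not normalised). The probes sit in constant array flanks that are not printed.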
# 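Note: Full-length recombinant human RUNX1 bound to double-stranded DNA microarray spots, detected with an Alexa488-labelled secondary antibody after the anti-RUNX1 primary, read as scanned spot fluorescence.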
# Chain of UniProt Q01196 (Q01196 whole entry): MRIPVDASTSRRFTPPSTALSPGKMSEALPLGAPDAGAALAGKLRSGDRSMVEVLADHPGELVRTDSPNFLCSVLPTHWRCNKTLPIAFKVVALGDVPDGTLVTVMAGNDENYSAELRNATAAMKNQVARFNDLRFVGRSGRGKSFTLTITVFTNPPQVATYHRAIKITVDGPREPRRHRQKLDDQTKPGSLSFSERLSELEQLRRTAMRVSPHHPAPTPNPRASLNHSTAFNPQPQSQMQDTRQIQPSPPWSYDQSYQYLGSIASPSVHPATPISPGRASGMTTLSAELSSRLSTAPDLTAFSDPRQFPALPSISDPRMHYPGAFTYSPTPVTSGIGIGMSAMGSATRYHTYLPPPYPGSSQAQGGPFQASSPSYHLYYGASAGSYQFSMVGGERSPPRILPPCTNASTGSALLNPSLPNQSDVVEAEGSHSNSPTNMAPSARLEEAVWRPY
row,Sequence,RUNX1 binding intensity
1,GAAGCCCCGCAATTATTGGGGGGCTTGCTCCCGCGC,733
2,TAAAGAAACTGGATGACTGTGGTTTACTGCGAGCAT,737
3,TATGCTGGGACCGCTAGCCCTTACGGCGCGCCTCAG,683
4,TTGCTGTGGTTTAGTCTCTGCAGCTTTCTGTTGGCT,3060
5,GCCGCTGAAAGCCCACAACCAGCGCAACGCAGGCGA,807
6,CCGTTACCGCGCTCGTCTTGCCACCTCCTCTGGAGT,1100
7,CCCCACGCGGTGTCGGTAACGCGGGAGCCTGTGTCC,866
8,GCTAAAGGGAGCTCTGTACAGCTGTGGTAAGGTGGC,818
9,CGTCGTCTGGGAAACCGCCGACTTCCAGCCGCGCAG,859
10,CTCGTGTTTTGTGGCTGTGTTCTGTCCGTTCAGTTG,897.6 ± 6
11,CTCGGGATTTGTGGTCCACCCGGCTGAACTCGCGGC,788
12,TGCGACGGGAGCTGGAACTTGCTAACCACAAAACCC,2370
13,ATGGATGCGGTTGCTTGCGTGAGGAGATACTTGATG,1410
14,CTGCGCTTCAGCTTCACCCGGAGTACAGCGGTCCTG,754
15,GAAGCGCTGGGCGCAAGTGGCTGTGGCTTTGCCCTT,735
16,CTCTCTGGGCCGAAGGAACGCGGTCACCCTGAGAAA,715
17,ACGACGTCCCTGAAGTGCTGCGGCAATGTTGCTCTT,722
18,TGTCGCCACCGCTGGATGGAGCCTTGCCGGGTCTCC,838
19,TTAAGGAGCTCCCGGGGCCGCGGGTAGAGGCGGGTG,768
20,ATCAGGGGAGACGGCCAAGGTTGCGGGAGTCTCTTC,716
21,AATGAGCCCCACAACCCTTTTCCTTACGGCCTGTGC,1000

row,Sequence,RUNX1 binding intensity
1,CCTGTGGTTGCCTCAGGCCTCAGGACGAAGCTCACT,822
2,TCCACAATTCCCAGGAGTCTCTGCGGCCGCGCGGAG,830
3,CTGGAACCGCAGGATCCTTGCTGCGTCCTCTCGGTC,2340
4,TGAACTGTGGGCGGGGCACTCTGGGAGCGCAAAAGC,767
5,TAAAACACCATGAAACTCTGTGGTGAGTGGGAGGTG,755
6,CAAAGTGATGGGGCAAATGGTTGTGGTTTTGGGTGG,1320
7,CAGGGCCAACCCACTGCGCCAGCATGTTGTCAGGTC,841
8,TTACACAACAGTAAACTATGTTTAGCGGTTAATCCA,866
9,TGGCATAAATATGTGGTCACTTATCATGCCTTCTCA,835
10,GTCCCTTGTGGCTACACAGGCAGCAAGCAGGTGGCA,720
11,GGCTCCAAAACCACAGGGCGGAGGCTCCCGCGCGGC,2290
12,TCCGTGACGTGCGGTGTAGTTGGGGAATCGCACCGT,865
13,CTAGCTGTGGACTGGAAACGAGTGGTTTTTGTGATC,745
14,TTGCGACTCGCGGTGACCCCTACGCGGCACTCTCTC,877
15,TTATCTCCTCTTTTTTTTTTTTTTTTTGGTTTTGCT,1870
16,CCAAGTGTAAAACAGAAGCTCAACCACGAATCTTAC,750
17,CGCCGAACGTAGTGACGTAGCGCGCAGCCGCAGCGG,656
18,AACAAGCCACAGGTGAGTCAGCATGCCACCTCCCGA,773
19,ATTTAGGAGGGAGTTTCCAGTACCACAACCTCACAG,850
20,GGGCGGGGCATTGTGGGTAAGAGGAGACGCTGGGGC,871
21,GCCCCTGATAGCGTCCTCACCATCCCCACAGCGCCT,1100

row,Sequence,RUNX1 binding intensity
1,GTGCTGCGGCCGCGGCCGAGAGAGGCAGTAGATCCC,823
2,AACCTCCGACTTTCGGCCGCGCAGCGGTGGGCTGAG,694
3,GTGCATCCACCACATGGTTCATTCTCAGGCTATGGT,828
4,GCCGCCACAAGCTGCCTGGGTGACCCGAAAACGGCA,751
5,ACGTGGTCAGATCCCCAACCCTTCCCTGAAAGGGGA,839
6,CCTTGCTACAGCATGTTTTGACCACGAGCCCAGGAG,995
7,TCTGCACCTCCGAGAAGCCTCCGTGGTTTGCTGCCA,796
8,CGGCCTCTTCGGCCAAAACTCCGGCCCGCGGTCCCG,932
9,CTCTCAGACTCAGAATGAGGTGGCGGTAGGTGGGGT,690
10,TCATGTACGTGAAGCCCAGCTCCCGCAGCGCGCCCA,788
11,ATGGCGAAGCAGCATGCCCTCAACCCACATACGGCA,885
12,GTGGAGGAACCGCGAGCCGCCTTGCTCCCCGGCCCA,783
13,GCCCGAGGTTCGGGTCCATGGACCGCGGGCGCCGAG,665
14,CGCCGAATGCATAAAAGACTGGCTGCGGTGGCTCAG,771
15,GACTCTTGTGGTTGCACCGCGCTCCCTGCCAGCTTG,1940
16,CTGTGCGGTCATGTGACGGAGGCCTGAAGGCAGGTC,1410
17,TACCACCTCAGCATGTCTGAACCACATGCAAGCAGG,715
18,TACTTCTTCATGGCAGAGACCGGGAGTGCGGTCCGC,781
19,TAAAATTGCGGGAGGGGACTTGGTCCTTCATGTTGC,849
20,GAGGCCGCAGAAAGGCCTGAGATGCAGCAAGCAGCT,687
21,AACATTACGGAGGTTTCTCTACCCATGCGGTGTCTC,958
